{"source": "PubChem BioAssay AID686978", "about": "(National Center for Advancing Translational Sciences (NCATS), 2013)", "note": "Among all 420,000 compounds or so, about 64,000 (15%) were called active. Inconclusive means that the source gave no clear call. Such entries were picked first, then a sample of the others. Calls come from the whole dose curve; as a rule, active = well fitted inhibition curve with a large enough effect; inconclusive = small, poorly fitted or top-dose-only effect; inactive = flat fitted curve, though single readings scatter. No potency is given beside an inconclusive call; the fits are too rough."}
{"test": "qHTS for Inhibitors of human tyrosyl-DNA phosphodiesterase 1 (TDP1): qHTS in cells in absence of CPT; note: nearly all actives have a fitted effect of over 55% in size; note: potency is the fitted concentration of half-maximal effect; tags give direction and shape of the fitted curve; for activity change, negative = growth inhibition: % is set by controls: 0 for no effect and ±100 for the full control effect", "conditions": "DT40 Tdp1-/- hTDP1 cells, no CPT, ATP luminescence, 48 h; activity change, negative = growth inhibition: at 46.2 µM (top of the series) unless noted", "outline": "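Chicken DT40 Tdp1-/- cells stably complemented with human TDP1 were seeded at 400 cells/well with DMSO in place of 20 nM camptothecin. After compound pinning, cells grew at least 48 hr at 37 °C; viability read by CellTiter-Glo luminescence.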"}
{"molecule": "Cc1[nH]c2ccccc2c1C(O)CN1CCC2(CC1)OCCO2", "note": "(stereo not given)", "Potency": "active: 16.4 µM"}
{"molecule": "CN(Cc1ccccc1)C(=S)Nc1ccc(OC(F)F)cc1", "Potency": "inconclusive [inhibitor, partial curve]"}
{"molecule": "CCc1ccc(NS(=O)(=O)c2ccc3[nH]cc(C(=O)NC4CCCC4)c(=O)c3c2)cc1", "activity change, negative = growth inhibition": "inconclusive: -32% [inhibitor]"}
{"molecule": "CCOc1ccc(OCC)c(NC(=O)CN2CCN(C(=O)c3ccco3)CC2)c1", "Potency": "inconclusive [inhibitor, single point]"}
{"molecule": "O=C(NCCS(=O)(=O)N1CCN(c2ccc(F)cc2)CC1)c1ccc(Br)o1", "Potency": "inconclusive [inhibitor, partial curve]"}
{"molecule": "COc1cc2nc(Cl)nc(N3CCOCC3)c2cc1OC", "Potency": "inconclusive [inhibitor, partial curve, poor fit]"}
{"molecule": "COc1ccc(C(=O)Nc2cccc(/C=C/c3nc4ccccc4c(=O)[nH]3)c2)cc1", "Potency": "active: 6.51 µM"}
{"molecule": "CCOC(=O)c1sc(NC(=O)C(CC)OC(=O)c2ccco2)nc1C", "note": "(stereo not given)", "Potency": "inactive"}
{"molecule": "CC(C)(CCc1ccccn1)C(=O)C(CCc1ccccn1)CCc1ccccn1", "Potency": "inconclusive [inhibitor, single point]"}
{"molecule": "CCOC(=O)c1cccc(NC(=O)c2cc3c(Cl)nc4ccc(C)cc4c3s2)c1", "Potency": "inconclusive [inhibitor, single point]"}
{"molecule": "O=C(c1cc2ccccc2o1)N(Cc1nnc(-c2ccccc2Cl)o1)C1CC1", "Potency": "inconclusive [inhibitor, single point]"}
{"molecule": "O=C(NCCCO)C(=O)NCc1ccccn1", "Potency": "inactive"}
{"molecule": "CCOC(=O)c1ccc2cccc(C)n2c1=O", "Potency": "inconclusive [inhibitor, full curve, poor fit]"}
{"molecule": "CCc1ccc(OCc2ccc(C(=O)OC)o2)cc1", "Potency": "inactive"}
{"molecule": "COc1ccc(S(=O)(=O)NCc2ccncc2)cc1NC(=O)c1ccccc1F", "Potency": "inactive"}
{"molecule": "CC(C)CC(=O)OC1C(N2CCOCC2)c2c(ccc(/C=C/C(=O)N3CCOCC3)c2O)OC1(C)C", "note": "(stereo not given)", "Potency": "inconclusive [inhibitor, single point]"}
{"molecule": "Cc1cc(NC(=O)c2ccc(C(C)(C)C)cc2)no1", "Potency": "inconclusive [inhibitor, single point]"}
{"molecule": "Cc1ccc(C(=O)NCCCN2CCN(CCCNC(=O)c3ccc(C)cc3)CC2)cc1", "Potency": "inactive"}
{"molecule": "CCOC(=O)c1c(NC(=O)Nc2ccc(Cl)cc2)sc(C)c1C", "Potency": "active: 13 µM"}
{"molecule": "COc1cc(OC)c2ccc(=O)oc2c1C(CCN1CCCC(C)C1)c1ccc2c(c1)OCO2", "note": "(stereo not given)", "Potency": "active: 14.6 µM"}
{"molecule": "C=CCOc1ccc(C=Nc2ccc(C)c(Cl)c2)c(O)c1", "Potency": "inactive"}
{"molecule": "O=C(CCNC(=O)c1ccccc1Cl)NCc1cccnc1", "Potency": "inactive"}
{"molecule": "Cc1ccc2c(c1)c(C)c(C)n2CC(O)CN1CCCCC1C", "note": "(stereo not given)", "Potency": "inconclusive [inhibitor, single point]"}
{"molecule": "COc1ccc(NC(=O)NN(C(=O)c2ccccc2)C(C)(C)C)cc1", "Potency": "inactive"}
{"molecule": "C/C(=N\\OCC(=O)Nc1ccccc1C(=O)O)c1cccs1", "Potency": "inconclusive [inhibitor, single point]"}
{"molecule": "Cc1ccc(NS(=O)(=O)c2ccc(NC(=O)C3CCCO3)cc2)cc1", "note": "(stereo not given)", "Potency": "active: 11.6 µM"}
{"molecule": "N/C(Cc1ccc(Cl)cc1)=N\\OC(=O)c1ccc2ccccc2c1", "Potency": "inconclusive [inhibitor, single point]"}
{"molecule": "COC(=O)/C(=C\\c1cc(OC)c(OC)c(OC)c1)c1nc2ccccc2[nH]1", "Potency": "active: 16.4 µM"}
{"molecule": "O=C(Nc1ccc(Cl)cc1)c1ccc2c(=O)n3c(nc2c1)CCCCC3", "Potency": "inconclusive [inhibitor, partial curve]"}
{"molecule": "Clc1ccc(-c2nc3ccncc3[nH]2)cc1", "Potency": "inconclusive [inhibitor, partial curve]"}
{"molecule": "c1ccc(CNc2nc(NCc3ccccc3)c3ccccc3n2)cc1", "Potency": "active: 5.17 µM"}
{"molecule": "Cc1cccc(NC(=O)C2CCN(C(=O)[C@@H]3Cc4ccccc4CN3)CC2)c1", "Potency": "inactive"}
{"molecule": "CCOC(=O)c1c(N)sc(C(=O)Nc2ccc3c(c2)OCO3)c1C", "Potency": "inconclusive [inhibitor, single point]"}
{"molecule": "Cc1cccn2c(=O)c3cc(C(=O)N4CCN(C(=O)c5ccco5)CC4)n(C)c3nc12", "Potency": "inconclusive [inhibitor, single point]"}
{"molecule": "Fc1ccc(-c2cc(-c3nc(-c4cccc(Cl)c4)no3)[nH]n2)cc1", "Potency": "inconclusive [inhibitor, single point]"}
{"molecule": "Cc1cccn2c(=O)c(/C=C(\\C#N)C(N)=O)c(N3CCN(Cc4ccc5c(c4)OCO5)CC3)nc12", "Potency": "inconclusive [inhibitor, single point]"}
{"molecule": "COc1ccc(N2CCN(c3ncnc4nc[nH]c34)CC2)cc1", "Potency": "inconclusive [inhibitor, single point]"}
{"molecule": "O=C(NNC(=S)NC(=O)C12CC3CC(CC(C3)C1)C2)c1ccncc1", "Potency": "inconclusive [inhibitor, single point]"}
{"molecule": "CCc1ccc(CNC(=O)c2ccc3c(c2)nc2n3CCOC2)cc1", "Potency": "inconclusive [inhibitor, single point]"}
{"molecule": "COc1ccc(C)cc1NC(=O)C(Sc1nnc(Nc2cc(C)ccc2OC)s1)c1ccccc1", "note": "(stereo not given)", "Potency": "inconclusive [inhibitor, single point]"}
{"molecule": "Cc1ccc(C)c(N2CCN(c3ncccc3[N+](=O)[O-])CC2)c1", "Potency": "inactive"}
{"molecule": "COc1ccc(CNC(=O)C2(C)Cc3c(-c4ccc(N(C)C)cc4)ccnc3O2)cc1OC", "note": "(stereo not given)", "Potency": "inconclusive [inhibitor, single point]"}
{"molecule": "Cc1ccc(S(=O)(=O)N2CC3(O)CN(C(=O)OC(C)C)N(C(=O)OC(C)C)CC3(OC(=O)NCc3ccco3)C2)cc1", "note": "(stereo not given)", "Potency": "active: 20.6 µM"}
{"molecule": "COc1ccccc1CNC(=O)CSc1ncc2c(n1)-c1ccccc1N(Cc1ccc(C)cc1)S2(=O)=O", "Potency": "active: 11.6 µM"}
{"molecule": "CCN1CCN(C(=O)c2ccc3c(c2)N(Cc2cccc(Cl)c2)C(=O)c2ccccc2S3(=O)=O)CC1", "Potency": "inconclusive [inhibitor, single point]"}
{"molecule": "Cc1cccc2cc(CN(Cc3ccccc3)C(=O)N(C)C)c(=O)[nH]c12", "Potency": "inconclusive [inhibitor, single point]"}
{"molecule": "C/C(CC(=O)Nc1ccc2ccccc2c1)=N\\NC(=O)c1cnccn1", "Potency": "inconclusive [inhibitor, single point]"}
{"molecule": "CNC(=S)N1CCN(c2c(F)cc3c(=O)c(C(=O)O)cn(C4CC4)c3c2OC)CC1C", "note": "(stereo not given)", "Potency": "inconclusive [inhibitor, partial curve, poor fit]"}
{"molecule": "CC1CCC(NC(=O)c2ccc3c(c2)N(Cc2cccc(F)c2)C(=O)c2ccccc2S3)CC1", "note": "(stereo not given)", "Potency": "inconclusive [inhibitor, single point]"}
{"molecule": "CCCCNC(=S)N1CCN(CC)CC1", "Potency": "inactive"}
{"molecule": "CCC(=O)N1CCc2cc(S(=O)(=O)CCC(=O)N3CCN(c4ccccc4F)CC3)ccc21", "Potency": "inconclusive [inhibitor, single point]"}
{"molecule": "CCCCN1C(=O)C(C#N)CC2=C1CC(C)(C)CC2=O", "note": "(stereo not given)", "Potency": "inactive"}
{"molecule": "CCCCNC(=O)[C@@H]1CC=C[C@@H]2CCN(Cc3ccc(Cl)c(Cl)c3)C(=O)[C@@H]21", "Potency": "active: 8.91 µM"}
{"molecule": "Cc1nn(C)c(C)c1S(=O)(=O)N1CCCC(C(=O)NCC2COc3ccccc3O2)C1", "note": "(stereo not given)", "Potency": "inconclusive [inhibitor, partial curve]"}
{"molecule": "O=C(NCCN1CCN(C(=O)c2cccc([N+](=O)[O-])c2)CC1)C(=O)NCc1ccc(Cl)cc1", "Potency": "inconclusive [inhibitor, single point]"}
{"molecule": "C/C(=N\\Nc1nc2ccccc2[nH]1)c1ccc([N+](=O)[O-])cc1", "Potency": "inconclusive [inhibitor, single point]"}
{"molecule": "CC(C)CCNC(=O)C1(C)CCN1Cc1ccc(-c2ccccn2)cc1", "note": "(stereo not given)", "Potency": "inactive"}
{"molecule": "O=C1CSC(c2ccccc2F)N1c1cc(Cl)ccc1O", "note": "(stereo not given)", "Potency": "inconclusive [inhibitor, single point]"}
{"molecule": "Cc1ccc(CNC(=O)c2cc3sccc3n2Cc2ccc(F)cc2)cc1", "Potency": "inconclusive [inhibitor, partial curve, poor fit]"}
{"molecule": "CC(=O)Nc1ccc([N+](=O)[O-])c(CS(=O)(=O)c2ccc(C)cc2)c1[N+](=O)[O-]", "Potency": "active: 23.1 µM"}
{"molecule": "C#CCOCCOCCOCCNc1nc(N2CCN(C(=O)Cn3cc(CCO)nn3)CC2)nc(N2CCN(C(=O)[C@H](CCCCN)n3cc(CC(C)O)nn3)CC2)n1", "note": "(stereo not given in full)", "Potency": "inactive"}
{"molecule": "CCOC(=O)c1c(NC(C)=O)sc2c(O)c(CN3CCN(CC)CC3)ccc12", "Potency": "inactive"}
{"molecule": "Cc1ccc(C(=O)OCC(=O)N2CCCc3ccccc32)cc1C", "Potency": "inconclusive [inhibitor, single point]"}
{"molecule": "O=C(CSCCO)Nc1cc(C(F)(F)F)ccc1Cl", "Potency": "inactive"}
{"molecule": "COc1ccc(N2CCN(C(=O)CCCn3c(=O)c4cccn4c4cccnc43)CC2)cc1", "Potency": "inconclusive [inhibitor, single point]"}
{"molecule": "CCCNC(=S)N1CCN(c2nc(C)nc3sc4c(c23)CCCC4)CC1", "Potency": "inconclusive [inhibitor, single point]"}
{"molecule": "CCOc1ccc(CNC(=O)c2sc3nc(C)cc(C)c3c2-n2cccc2)cc1", "activity change, negative = growth inhibition": "inconclusive: -32.6% [inhibitor]"}
{"molecule": "Cc1ccc(NC(=O)CN2C(=O)CCc3cc(S(=O)(=O)N4CCOCC4)ccc32)c(C)c1", "Potency": "inactive"}
{"molecule": "COc1ccc(OCc2cc(/C=N\\NC(=O)c3ccccc3)ccc2OC)cc1", "Potency": "active: 5.17 µM"}
{"molecule": "CCCN1CNC(=S)N(CCc2ccccc2)C1", "Potency": "inactive"}
